PubChem BioAssay AID686978 (National Center for Advancing Translational Sciences (NCATS), 2013)
In all, about 420,000 compounds went through this assay and about 64,000 (15%) were called active. This list was built around the results that the source calls inconclusive (neither active nor inactive); the mix of calls is not that of the screen. Calls follow the shape of the dose curve; as a rule, active = well fitted inhibition curve with a large enough effect; inconclusive = small, poorly fitted or top-dose-only effect; inactive = flat fitted curve, though single readings scatter. No potency is given beside an inconclusive call; the fits are too rough.

Assay: qHTS for Inhibitors of human tyrosyl-DNA phosphodiesterase 1 (TDP1): qHTS in cells in absence of CPT; also: nearly all actives have a fitted effect of over 55% in size
Settings: DT40 Tdp1-/- hTDP1 cells, no CPT, ATP luminescence, 48 h; activity change, negative = growth inhibition: at 46.2 µM (top of the series)
In short: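 Growth of hTDP1-complemented DT40 Tdp1-knockout cells is measured by ATP luminescence after at least 48 hr compound exposure at 37 °C, with DMSO substituting for the 20 nM CPT used in the parallel screen.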
% is scaled to controls: 0 for no effect and ±100 for the full control effect; potency is read from the fitted curve at half-maximal effect; tags tell the direction and shape of the fitted curve.

| Compound | Potency | activity change, negative = growth inhibition |
| --- | --- | --- |
| CCCN(C(=O)COC(=O)CCOc1ccc(C)cc1)c1c(N)n(Cc2ccccc2)c(=O)[nH]c1=O | inconclusive [inhibitor, single point] |  |
| COc1ccc2nc3oc(C(=O)Nc4cccc(C(F)(F)F)c4)cc3cc2c1 | active: 11.6 µM |  |
| CCOc1ccc(NC(=O)CN(Cc2ccccc2)S(=O)(=O)c2ccc(Cl)cc2)cc1 | inconclusive [inhibitor, single point] |  |
| CNC(=O)c1sc2nc(-c3ccc(OC)cc3)cn2c1C | inconclusive [inhibitor, single point] |  |
| CC(C)OC(=O)N(C)c1ccc(C(O)(C(F)(F)F)C(F)(F)F)cc1 | inconclusive [inhibitor, partial curve] |  |
| COc1ccc(-c2ccc(CCC(=O)O)o2)cc1 | inconclusive [inhibitor, single point] |  |
| CCCS(=O)(=O)N1CCN(C(=O)COc2ccc(-c3ccccc3)cc2)CC1 | inconclusive [inhibitor, single point] |  |
| O=C(Nc1cc(Cl)ccc1O)C1CC(c2c(F)cccc2Cl)=NO1 (centres undefined) | inconclusive [inhibitor, single point] |  |
| CCc1c(C)sc2c1CCN(C(=O)Nc1ccccc1C(=O)OC)C2c1ccc(F)cc1 (centres undefined) | inconclusive [inhibitor, single point] |  |
| Cc1nnc(SCC(=O)c2ccc(Cl)cc2)n(N)c1=O |  | inactive: -11.2% |
| O=C(COC(=O)c1ccc(F)c(S(=O)(=O)N2CCOCC2)c1)NCCc1ccc(F)cc1 |  | inactive: -2.49% |
| COC(=O)c1cc(OC)c(OC)cc1NC(=O)c1cccc(OC)c1OC | active: 5.8 µM |  |
| O=C(CSc1nc2ccc(NC(=O)c3ccccc3C(=O)O)cc2s1)Nc1ccc(F)c([N+](=O)[O-])c1 |  | inactive: -5.57% |
| Cc1c(Cl)cccc1NC(=O)c1ccc(NC(=O)N2CCSc3ncccc32)cc1 | inconclusive [inhibitor, single point] |  |
| Cc1ccc(-c2[nH]nc(N)c2N=Nc2ccccc2C)cc1 | inconclusive [inhibitor, single point] |  |
| O=C(Nc1ccc(N2CCCCC2)cc1)c1cc(S(=O)(=O)N2CCOCC2)ccc1F | inconclusive [inhibitor, single point] |  |
| Cc1nc(C(=O)NC2CCOCC2)sc1C1(C)CC(c2cccc([N+](=O)[O-])c2)=NO1 (centres undefined) | inconclusive [inhibitor, single point] |  |
| Cc1ccc2[nH]c(=O)cc(C(=O)OC(C)C)c2c1 | inconclusive [inhibitor, partial curve] |  |
| Cc1sc2nc(SCC(=O)NCc3ccco3)n(Cc3ccccc3)c(=O)c2c1C | inconclusive [inhibitor, partial curve, poor fit] |  |
| COc1ccc(N2CCN(CCCNC(=O)c3ccc4nc(CCc5ccccc5)oc4c3)CC2)cc1 | active: 16.4 µM |  |
| CCOC(=O)C(C(=O)OCC)N(C#N)c1nc(N(C)C)nc(N(C)C)n1 |  | inactive: -11.6% |
| CC1CCN(Cc2cc(=O)oc3cc4c(cc23)CCCC4)CC1 | inconclusive [inhibitor, single point] |  |

| Compound | Potency | activity change, negative = growth inhibition |
| --- | --- | --- |
| CCOCCCNC(=S)Nc1cc(OCC)c(NC(=O)c2ccco2)cc1OCC |  | inactive: -20.4% |
| O=C(c1ccc2c(c1)OCCO2)N1CCN(Cc2ccccc2)CC1 |  | inactive: -14.9% |
| CCOc1ccc(C2C(C(=O)Nc3ccc(OC)cc3)=C(C)Nc3nc(SCc4ccc(Cl)cc4)nn32)cc1 (centres undefined) |  | inactive: -22.8% |
| CCOc1ccc(S(=O)(=O)N2Cc3ccccc3CC2C(=O)NCCCn2ccnc2)cc1 (centres undefined) | inconclusive [inhibitor, single point] |  |
| CC(C)(C)C1CCC(=NNC(=O)C(=O)NC2CCCCC2)CC1 (centres undefined) | inconclusive [inhibitor, partial curve, poor fit] |  |
| Cc1cccc(C)c1OCc1cc(C(=O)N2CCC(c3ccccc3)CC2)no1 | inconclusive [inhibitor, single point] |  |
| COC(=O)N/N=C/c1cn(Cc2c(Cl)cccc2Cl)c2ccccc12 | inconclusive [inhibitor, partial curve] |  |
| C=CCNc1nc2ccccc2nc1NS(=O)(=O)c1ccc(OC)cc1 |  | inactive: 0.663% |
| COc1ccc(C(=O)Nc2cccc3ccccc23)cc1 | inconclusive [inhibitor, single point] |  |
| COc1ccc(Cc2c(C3CCCCC3)nc3c(Cl)cc(C(F)(F)F)cn23)c(C)c1 | inconclusive [inhibitor, single point] |  |
| O=c1c2cc([N+](=O)[O-])ccc2nc2n1CCCC2 | inconclusive [inhibitor, single point] |  |
| NC(=O)c1cc(S(=O)(=O)NCCCc2ccccc2)cs1 | inconclusive [inhibitor, partial curve, poor fit] |  |
| CC(C)n1nccc1NC(=O)COC(=O)c1ccc(NC(N)=O)cc1 |  | inconclusive: -36.2% [inhibitor] |
| N#CC(=C(O)COC(=O)Cc1c[nH]c2ccccc12)c1nc2ccccc2[nH]1 | inconclusive [inhibitor, single point] |  |
| O=C(CSc1nnc(Cc2ccccc2)o1)c1cc(F)ccc1F |  | inactive: -4.39% |
| CC(C)Cn1c(N)c(C(=O)COC(=O)c2cnccn2)c(=O)n(C)c1=O |  | inactive: -16.4% |
| CN1CCN(S(=O)(=O)c2ccc3c(c2)oc(=O)n3C)CC1 |  | inactive: 1.38% |
| CN(C(=O)COC(=O)c1cc([N+](=O)[O-])ccc1N1CCOCC1)C1CCCCC1 | inconclusive [inhibitor, single point] |  |
| COc1ccc(-n2c(C)nc3sc4c(c3c2=O)CCC4)cc1 | inconclusive [inhibitor, single point] |  |
| O=C(c1ccc2c(c1)N(Cc1ccc(F)cc1)CCS2)N1CCN(c2ccccc2)CC1 | active: 23.1 µM |  |
| O=C(/C=C/c1ccccc1)Nc1cc(S(=O)(=O)N2CCOCC2)ccc1N1CCCC1 |  | inconclusive: -31.7% [inhibitor] |
| CCc1nc2c(OCc3ccc(OC)cc3)cccn2c1N(C)C(=O)c1ccco1 | inconclusive [inhibitor, single point] |  |
